The chains are these.
B1: PhoQ; a variant is named by its letters at X, in order, P23837 (parent)
chain: MKKLLRLFFPLSLRVRFLLATAAVVLVLSLAYGMVALIGYSVSFDKTTFRLLRGESNLFYTLAKWENNKLHVELPENIDKQSPTMTLIYDENGQLLWAQRDVPWLMKMIQPDWLKSNGFHEIEADVNDTSLLLSGDHSIQQQLQEVREDDDDAEMTHSVAVNVYPATSRMPKLTIVVVDTIPVELKSSYMVWSWFIYVLSANLLLVIPLLWVAAWWSLRPIEALAKEVRELEEHNRELLNPATTRELTSLVRNLNRLLKSERERYDKYRTTLTDLTHSLKTPLXXLQXXLRSLRSEKMSVSDAEPVMLEQISRISQQIGYYLHRASMRGGTLLSRELHPVAPLLDNLTSALNKVYQRKGVNISLDISPEISFVGEQNDFVEVMGNVLDNACKYCLEFVEISARQTDEHLYIVVEDDGPGIPLSKREVIFDRGQRVDTLRPGQGVGLAVAREITEQYEGKIVAGESMLGGARMEVIFGRQHSAPKDE

This is one part of the list.

The assay covers variants of B1. In words: enrichment ratio after two sorts for PhoP signalling (ratio (wild type AVST 3.29)); higher = more functional. The note with it: with PhoP (E. coli).
Take YLMR: the enrichment ratio is at most 0.25.
For the variant TVKW, the enrichment ratio was at most 0.25.
In the case of LKRD it was at most 0.25; in that of FNMW, at most 0.25; in that of YKAL, at most 0.25.
In the case of LGSG it was at most 0.25; in that of TYGE, at most 0.25; in that of ILTW, at most 0.25.
Turning to SPLV, the enrichment ratio is at most 0.25.
Consider MMNP, for which the enrichment ratio is at most 0.25.
For the variant VSHS, the enrichment ratio is at most 0.25.
As to PQCA, the enrichment ratio is at most 0.25.
In the case of TPML it was at most 0.25.
The same measure for TYGK: at most 0.25; for EIFA: at most 0.25.
The same measure for TARH: at most 0.25; for LESC: at most 0.25.
In the case of DMGE, the enrichment ratio was at most 0.25.
The same measure for MMHW: at most 0.25; for LRRH: at most 0.25; for RCLI: at most 0.25.
Take LWYF: the enrichment ratio was at most 0.25.
The same measure for KMNT: at most 0.25; for ASDF: at most 0.25; for YVLH: 0.392.
In the case of RSEF it was at most 0.25.
For the variant WYKY, the enrichment ratio was at most 0.25.
As for FHQG, the enrichment ratio is at most 0.25.
Regarding YAWE, the enrichment ratio was at most 0.25.
Consider YTSG, for which the enrichment ratio is at most 0.25.
In the case of PAFV it was at most 0.25.
For the variant ISLC, the enrichment ratio was 1.87.
Regarding NISN, the enrichment ratio was found to be 0.755.
Turning to EYEK, the enrichment ratio is at most 0.25.
In the case of TRRE it was at most 0.25; in that of ENVM, at most 0.25.
In the case of ITSC it was at most 0.25.
The same measure for AKIH: 7.98.
Consider SIQR, for which the enrichment ratio was 4.31.
Take RELF: the enrichment ratio was at most 0.25.
Turning to RPPT, the enrichment ratio was at most 0.25.
In the case of PERL it was at most 0.25; in that of IAMP, at most 0.25; in that of WEPD, at most 0.25.
On to WCYN, for which the enrichment ratio was at most 0.25.
In the case of NQTR it was at most 0.25; in that of TEWD, 13; in that of AHNA, at most 0.25.
In the case of HNLG it was at most 0.25; in that of LTMD, at most 0.25; in that of YEMM, 16.1.
In the case of ACFY it was at most 0.25.
Consider PYND, for which the enrichment ratio is at most 0.25.
The same measure for FHAN: at most 0.25; for VCCY: at most 0.25; for HYSE: at most 0.25.
In the case of HTFV it was at most 0.25.
In the case of GENH it was at most 0.25; in that of LSHP, at most 0.25.
As to SLRR, the enrichment ratio was at most 0.25.
In the case of SSLY it was 8.15; in that of LESI, at most 0.25; in that of EFRR, at most 0.25.
In the case of HMRL it was at most 0.25.
The same measure for RLDL: at most 0.25.
Consider DICY, for which the enrichment ratio was at most 0.25.
In the case of RCIS it was at most 0.25.
In the case of DRGR it was at most 0.25; in that of RTDM, at most 0.25.
As to LGVW, the enrichment ratio was at most 0.25.
In the case of FLWM it was at most 0.25.
Consider EASY, for which the enrichment ratio is at most 0.25.
On to TSMR, for which the enrichment ratio turned out to be 0.767.
In the case of YWSA it was at most 0.25; in that of MVGT, at most 0.25; in that of AKIV, 9.06.
In the case of MSLY it was 0.424.
In the case of HQAC it was at most 0.25.
On to NRHY, for which the enrichment ratio was at most 0.25.
For the variant KAFY, the enrichment ratio is at most 0.25.
In the case of SNFC it was at most 0.25; in that of WVVR, at most 0.25; in that of YTNL, at most 0.25.
In the case of KYQY it was at most 0.25; in that of KKPR, at most 0.25; in that of QTWT, at most 0.25.
In the case of GQLE it was 14.3; in that of TAFW, at most 0.25.
As to IHQY, the enrichment ratio is at most 0.25.
As for RFWC, the enrichment ratio is at most 0.25.
For FDDE, the enrichment ratio was at most 0.25.
In the case of RFSS it was at most 0.25; in that of EMCV, at most 0.25; in that of INEY, at most 0.25.
In the case of PVYI it was at most 0.25.
In the case of SNMC it was 6.92.
As to EKLT, the enrichment ratio is at most 0.25.
The same measure for NANW: at most 0.25; for STIS: 8.13.
Take KKQY: the enrichment ratio was at most 0.25.
The same measure for IQVP: at most 0.25; for YFRF: at most 0.25; for DRNL: 2.65.
In the case of KDLY it was at most 0.25.
As to RMDP, the enrichment ratio is at most 0.25.
As to FIKR, the enrichment ratio is at most 0.25.
With TFQR, the enrichment ratio is 0.827.
In the case of SSTE, the enrichment ratio was 1.25.
The same measure for SWWT: at most 0.25.
In the case of NKFR it was at most 0.25; in that of IGFK, at most 0.25; in that of VICD, at most 0.25.
The same measure for QQIH: at most 0.25; for AYRI: at most 0.25; for AFEW: at most 0.25.
In the case of STRL, the enrichment ratio is at most 0.25.
Consider PMYG, for which the enrichment ratio is at most 0.25.
The same measure for DFWV: at most 0.25.
The same measure for GAEW: at most 0.25.
The same measure for GLMN: at most 0.25; for RPTN: at most 0.25; for RLNW: at most 0.25.
As for MAGQ, the enrichment ratio is 3.61.
In the case of GDVM it was 28.9.
On to MDAT, for which the enrichment ratio was found to be 25.1.
In the case of WFPP it was at most 0.25; in that of GPII, at most 0.25.
The same measure for WPYI: at most 0.25.
In the case of MQPE it was at most 0.25; in that of YYVN, at most 0.25.
As to KFGW, the enrichment ratio was at most 0.25.
The same measure for TVPK: at most 0.25; for GYHL: at most 0.25; for IQIM: at most 0.25.
For the variant PNPF, the enrichment ratio was at most 0.25.
For the variant PCHY, the enrichment ratio is at most 0.25.
In the case of GSNQ, the enrichment ratio was at most 0.25.
Consider VCME, for which the enrichment ratio was at most 0.25.
As to MNYQ, the enrichment ratio was at most 0.25.
For QLVY, the enrichment ratio is at most 0.25.
In the case of WLFY it was at most 0.25; in that of GIER, 5.58.
As to LYNA, the enrichment ratio is at most 0.25.
The same measure for TQEW: at most 0.25; for FCDS: at most 0.25; for RGIH: at most 0.25.
The same measure for TSEE: at most 0.25; for KASC: at most 0.25; for MVIW: at most 0.25.
The same measure for YRES: at most 0.25.
Take PNRP: the enrichment ratio was at most 0.25.
The same measure for VANC: at most 0.25; for ISVK: at most 0.25.

The record behind these values is a collection of fitness landscapes (doi:10.1126/science.1257360).
